Some of the results follow. The full chains were built here from the parent and the listed change. Values near 0.05 are background.
B1: TEV protease; numbered along this chain (parent)
chain: MGESLFKGPRDYNPISSSICHLTNESDGHTTSLYGIGFGPFIITNKHLFRRNNGTLVVQSLHGVFKVKDTTTLQQHLVDGRDMIIIRMPKDFPPFPQKLKFREPQREERICLVTTNFQTKSMSSMVSDTSCTFPSGDGIFWKHWIQTKDGQCGSPLVSTRDGFIVGIHSASNFTNTNNYFTSVPKNFMELLTNQEAQQWVSGWRLNADSVLWGGHKVFMVKPEEPFQPVKEATQL

Variants of: B1
Assay: raw area under fraction-flipped curve 0-4 h after induction (AUC4h, not background-subtracted), DNA-recorder readout of cleavage of the substrate (dimensionless); higher = more cleavage of the substrate by the protease variant
Conditions: temperature: 34 °C; time window: 0-4 h after rhamnose induction
Description: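 In vivo DNA recorder in E. coli TOP10(DE3) ΔrhaA at 34 °C. Each TEVp single-site mutant (parent TEVp 0) is paired with a single-site variant of the 7-mer TEVs (canonical ENLYFQ|S). The substrate sits between flexible linkers in a Bxb1-sfGFP-TEVs-SsrA fusion, so cleavage stabilises Bxb1 and speeds flipping of a recombination array, read by NGS. The value is the raw area under the fraction-flipped curve over 0-4 h after rhamnose induction (AUC4h), with ≥20 reads per time point. It is not background-subtracted; inactive controls average about 0.047.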
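Also: Bxb1 expression induced with 0.2% (w/v) L-rhamnose at OD600 near 0.5, cultures sampled hourly, flipped fraction per protease–substrate barcode pair counted by paired-end Illumina sequencing.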

Variant | area with substrate ENLAFQS | area with substrate ENLCFQS | area with substrate ENLDFQS | area with substrate ENLEFQS | area with substrate ENLFFQS | area with substrate ENLHFQS | area with substrate ENLKFQS | area with substrate ENLLFQS | area with substrate ENLNFQS | area with substrate ENLQFQS | area with substrate ENLRFQS | area with substrate ENLSFQS | area with substrate ENLTFQS | area with substrate ENLGFQS | area with substrate ENLIFQS | area with substrate ENLPFQS | area with substrate ENLVFQS | area with substrate ENLWFQS | area with substrate ENLMFQS
T55I | 0.0685 | 0.0648 | 0.064 | 0.0872 | 0.0788 | 0.0656 | 0.0753 | 0.0709 | 0.0643 | 0.0903 | 0.0703 | 0.0692 | 0.0682 | – | – | – | – | – | –
T55E | 0.0686 | 0.0609 | 0.0579 | 0.0824 | 0.0597 | 0.0703 | 0.0679 | – | 0.0505 | 0.0899 | 0.0677 | 0.0615 | – | 0.0571 | 0.0832 | 0.0598 | 0.0839 | 0.0412 | –
N45S | 0.0558 | 0.0614 | – | 0.053 | 0.0653 | 0.0589 | 0.0652 | 0.123 | – | – | – | 0.0573 | – | – | 0.0597 | 0.0598 | – | 0.0612 | 0.0347
H47A | 0.0612 | 0.0641 | 0.0574 | 0.0628 | 0.0587 | 0.0566 | – | 0.0685 | – | 0.0374 | – | 0.0618 | – | – | – | – | 0.0617 | 0.0543 | –
V57T | 0.056 | 0.0784 | 0.0567 | – | 0.0713 | 0.0737 | 0.0922 | – | 0.0624 | – | – | 0.0728 | – | 0.0729 | 0.0986 | – | – | 0.0219 | –
V57K | 0.0634 | – | 0.056 | 0.0661 | 0.0765 | 0.0635 | 0.0772 | – | 0.0702 | 0.106 | 0.0527 | 0.0562 | – | 0.0694 | 0.092 | 0.101 | – | – | 0.0708
V67R | 0.0523 | 0.0576 | 0.0436 | 0.0504 | 0.055 | – | 0.059 | 0.0468 | – | – | – | 0.0529 | – | – | 0.0574 | – | – | 0.0621 | –
D69H | 0.0543 | – | 0.0379 | 0.0588 | 0.0868 | 0.0815 | 0.0777 | 0.084 | 0.0546 | 0.0653 | 0.0581 | 0.0657 | – | 0.059 | 0.0733 | 0.0653 | 0.09 | 0.0627 | 0.0735
N52I | 0.0592 | – | – | – | – | 0.0421 | – | – | 0.0774 | – | – | 0.0552 | – | – | – | – | – | – | –
N52Y | 0.0614 | 0.0533 | 0.0732 | – | 0.0497 | 0.0513 | 0.0626 | – | 0.0557 | 0.0719 | 0.0634 | 0.0399 | 0.0713 | – | 0.0462 | – | – | 0.0467 | 0.0673
N52S | 0.0626 | – | – | 0.0678 | 0.081 | 0.0556 | 0.0657 | – | 0.0622 | – | 0.0813 | 0.0675 | 0.066 | – | 0.0639 | 0.0413 | – | – | –
L61N | 0.075 | – | 0.0596 | – | 0.0856 | – | 0.0687 | 0.0779 | 0.0552 | 0.0771 | – | 0.065 | 0.0729 | – | – | 0.058 | – | – | 0.0871
S60F | 0.0602 | 0.0924 | 0.0424 | 0.0616 | 0.115 | – | 0.0156 | – | 0.0516 | 0.0778 | – | 0.0643 | – | – | 0.0743 | 0.0673 | 0.0855 | 0.0665 | 0.0637
S60V | 0.0592 | 0.0879 | 0.0654 | 0.0597 | 0.0732 | 0.0567 | 0.0376 | 0.0477 | 0.0648 | – | 0.0645 | 0.034 | – | 0.0514 | 0.0729 | 0.0689 | 0.0811 | 0.0623 | 0.0745
N53A | 0.0761 | – | 0.0562 | 0.0623 | 0.104 | – | 0.0778 | 0.065 | 0.0591 | 0.0628 | 0.0617 | 0.0677 | – | 0.0448 | 0.0686 | 0.0627 | – | – | 0.0775
L48H | 0.0694 | 0.0474 | 0.0709 | 0.0645 | 0.0558 | 0.0549 | 0.0521 | – | 0.0567 | 0.0508 | – | 0.0339 | – | – | – | 0.0569 | – | 0.056 | 0.0673
K66F | 0.0823 | – | 0.0682 | 0.0755 | 0.0973 | 0.068 | 0.0685 | 0.0876 | 0.0567 | 0.0619 | 0.0668 | 0.0679 | – | 0.0589 | 0.0892 | – | – | 0.0593 | –
K66R | 0.0705 | – | 0.0643 | 0.0583 | 0.089 | – | 0.0941 | – | 0.061 | 0.0634 | – | 0.0508 | 0.0694 | 0.0476 | 0.0862 | 0.0684 | 0.0608 | – | –
R50L | 0.0729 | – | 0.0591 | 0.0603 | 0.0946 | 0.0614 | 0.0778 | – | – | – | 0.0905 | 0.0663 | – | 0.0762 | – | – | 0.102 | – | –
F65R | 0.0723 | 0.0732 | 0.0635 | 0.041 | 0.0795 | 0.0684 | 0.07 | – | 0.0654 | 0.0704 | 0.0803 | 0.0534 | – | 0.0741 | – | – | – | 0.0553 | –
F65E | 0.101 | – | 0.052 | 0.0735 | 0.0833 | – | 0.0933 | – | – | 0.0632 | 0.057 | 0.0481 | – | 0.0609 | – | – | – | 0.0712 | 0.0828
F49H | 0.0688 | – | 0.0627 | – | 0.0527 | 0.0555 | 0.0591 | 0.0589 | 0.0614 | – | 0.0495 | 0.0595 | – | 0.0671 | 0.0608 | 0.0677 | – | 0.0448 | –
G63I | 0.0477 | – | 0.0504 | 0.0852 | 0.0827 | 0.0531 | 0.0805 | – | 0.0611 | – | – | 0.0781 | – | – | 0.07 | 0.0451 | – | – | –
G63F | 0.0621 | 0.0556 | 0.0786 | – | 0.0736 | 0.0736 | 0.0669 | – | 0.074 | 0.0609 | 0.0787 | 0.061 | – | – | – | 0.0455 | 0.0867 | – | 0.0797
G63N | 0.0582 | – | 0.0481 | – | – | – | 0.0694 | 0.0567 | 0.0607 | – | 0.052 | 0.0723 | 0.0678 | 0.0735 | – | 0.0412 | – | 0.062 | –
K46R | 0.0634 | – | 0.0646 | 0.0668 | 0.0754 | 0.0585 | 0.0694 | 0.068 | 0.0609 | 0.0641 | 0.0825 | 0.0564 | – | 0.0495 | – | 0.0583 | – | 0.0675 | –
K46E | 0.0484 | 0.0723 | 0.0135 | 0.0524 | 0.06 | 0.0626 | 0.0569 | 0.0542 | 0.0573 | 0.0559 | – | 0.0261 | 0.0598 | – | 0.063 | 0.0692 | – | 0.0417 | 0.0536
K46F | 0.0515 | 0.0563 | 0.0714 | 0.0321 | 0.0593 | – | 0.0581 | 0.0631 | – | – | 0.0631 | 0.0518 | – | – | 0.0634 | – | – | 0.0528 | –

Source: the supplement of paper PMC12217912
